# Source: patent US10039838B2, “Car peptide for homing, diagnosis and targeted therapy for pulmonary and fibrotic disorders” (Vascular BioSciences, priority 2010, dated 2018)
# Legend:
# [1] = tested on: catheterized SU5416/hypoxia/normoxia-exposed rats with PAH; experiment: Blood pressure tracing, fasudil with and without CAR; format: in vivo, rat
# Procedure: Animal Model Adult male Sprague-Dawley rats weighing approximately 200 g are injected subcutaneously with SU5416 (20 mg/kg; SUGEN Inc), which is suspended in carboxymethylcellulose (0.5% [wt/vol] carboxymethylcellulose sodium, 0.9% [wt/vol] NaCl, 0.4% [vol/vol] polysorbate, 0.9% [vol/vol] benzyl alcohol in deionized water). The rats are then exposed to chronic hypoxia in a hypobaric chamber (10% 02) for 3 weeks and are returned to normoxia (21% 02) for an additional 2 to 10 weeks.
# Rats are anesthetized with intramuscular pentobarbital sodium (30 mg/kg). The rats are placed on controlled heating pads. Hemodynamic measurements are performed in anesthetized animals under normoxic conditions. Polyvinyl catheters (PV-1, internal diameter: 0.28 mm) are inserted into the right jugular vein for measurement of right ventricular systolic pressure (RVSP) and into the left jugular vein for drug administration. A microtip P-V catheter (SPR-838, Millar Instruments) is inserted into the right carotid artery and advanced into the left ventrical (LV). The signals are continuously recorded by MPVS-300 system with PowerLab/4SP, A/D converter (AD Instruments), and a personal computer. RVSP, heart rate, maximal left ventriclar systolic pressure, left ventricular end-diastolic pressure (LVEDP), mean arterial pressure (MAP), cardiac output, and stroke volume are measured. If the heart rate falls below 300 beats/min, the measurements are excluded from analysis. At the end of each hemodynamic study, the rat is sacrificed by an overdose of pentobarbital sodium, and organs are removed for various measurements and analyses.
# After baseline hemodynamic measurements, a simple mixture of CAR (1 mg/300 g rat), or control peptide CARM, and fasudil (0.1, 0.3, 1, or 3 mg/kg) or each agent alone is injected intravenously, and all hemodynamic parameters are continuously monitored.
# [2] = tested on: severely remodeled pulmonary arterial lesions and other organs of SU5416/hypoxia/normoxia-exposed rats; format: in vivo, rat; conditions: FAM-labeled peptide 1 mg/300 g body weight via tail vein, tissues collected 2 hours after injection, FIGS. 5-10
# Procedure: FIGS. 5-13 depict varying distributions of CAR and the control peptide CARM in tissues from the late stage SU5146/hypoxia/normoxia exposed rats. Tissue samples were collected 2 hours after injections of FAM-labeled CAR or CARM peptide via tail vein (1 mg/300 g body weight). Low power magnification of lung tissues (FIG. 5), high power magnification of severely remodeled (Grade 4) pulmonary arterial lesions (FIGS. 6-10), low power and high power magnification photos of liver (FIG. 11), spleen (FIG. 12), kidney (FIG. 13). Animal Model Adult male Sprague-Dawley rats weighing approximately 200 g are injected subcutaneously with SU5416 (20 mg/kg; SUGEN Inc), which is suspended in carboxymethylcellulose (0.5% [wt/vol] carboxymethylcellulose sodium, 0.9% [wt/vol] NaCl, 0.4% [vol/vol] polysorbate, 0.9% [vol/vol] benzyl alcohol in deionized water). The rats are then exposed to chronic hypoxia in a hypobaric chamber (10% 02) for 3 weeks and are returned to normoxia (21% 02) for an additional 2 to 10 weeks. Organs (lung, heart, liver, spleen, and kidney) are collected after blood is flushed with 30 ml phosphate buffered saline (PBS). Lungs are inflated via trachea with 10% formalin at a constant pressure of 20 cm H2O. […] Sections were lightly counterstained with hematoxylin, and analyzed using light microscopically (FIGS. 5-13).
# [3] = acute iv, CAR 1 mg/300 g rat + fasudil, compared to fasudil alone, FIGS. 18-19
# [4] = fasudil 1 to 10 mg/kg with and without CAR, FIG. 21
sequence,measurement,setting,value
CARSKNKDC,Effect of co-administered CAR on right ventricular systolic pressure (RVSP) lowering by fasudil,[1]; [3],enhanced the blood pressure lowering effect of fasudil on RVSP
same,Effect of co-administered CAR with fasudil on left ventricular systolic pressure (LVSP),[1]; [3],only a minor reduction in LVSP
same,"Pulmonary pressure (RVSP), alternative analysis comparing RVSP to systolic aortic pressure (SAP)",[1]; [4],selective decrease in pulmonary pressure as measured in the RVSP is present
same,"Systemic effect (SAP), alternative analysis comparing RVSP to systolic aortic pressure",[1]; [4],no increased CAR effect systemically
same,Detection of peptide in severely remodeled arteries from lung tissue,[2],detected in high intensity in all layers of severely remodeled arteries from lung tissue
